Source: PubChem BioAssay AID493208 (National Center for Advancing Translational Sciences (NCATS), 2011)
In all, about 44,000 compounds went through this assay and about 340 (0.77%) were called active. Another 5% or so got no clear call; they are omitted. Calls follow the shape of the dose curve; as a rule, active = well fitted inhibition curve with a large enough effect; inconclusive = small, poorly fitted or top-dose-only effect; inactive = flat fitted curve, though single readings scatter. The list shows a part of the results.

Test: Acumen qHTS Assay for Inhibitors of the mTORC1 Signaling Pathway in MEF (Tsc2-/-, p53-/-) Cells: Sytravon; also: nearly all actives have a fitted effect of over 50% in size;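 as to activity change, negative = inhibition: plate controls were DMSO for no effect and rapamycin for full effect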
Conditions: phospho-rpS6 immunofluorescence/PI, 24 h; series mostly up to 38.3 µM; activity change, negative = inhibition: at the top concentration
Method in brief: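 Tsc2-/-, p53-/- mouse embryonic fibroblasts (empty-vector line) exposed to compound 24 hrs at 37 C, fixed, immunostained for phospho-rpS6 and counterstained with propidium iodide. Acumen laser scanning gives % positive cells from Alexa 488/PI ratio, thresholded using 7.5 nM rapamycin; PI count gives viability.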
Potency is read from the fitted curve at half-maximal effect.

Row | SMILES | activity change, negative = inhibition | Potency
1 | CC(C)CCNC(=O)c1ccc(Cn2c(SCC(=O)NC(C)C)nc3ccccc3c2=O)cc1 | inactive: 1.59% | –
2 | Cc1cc(NC(=O)c2ccc(-c3ccc(Br)cc3)o2)cc(-c2nc3ncccc3o2)c1O | inactive: -2.25% | –
3 | Cc1ccc2nc(Cl)c3cc(C(=O)NCCCN4CCC(C)CC4)sc3c2c1 | inactive: -13.2% | –
4 | Cc1c(-c2ccccc2)c(=O)oc2c(CN3CCN(C)CC3)c(O)ccc12 | inactive: -12.7% | –
5 | Cc1ccc(C)c(S(=O)(=O)c2nnn3c2nc(NCc2cccs2)c2sccc23)c1 | inactive: -14% | –
6 | COc1ccc(NC(=O)Cc2csc(COc3cccc(C)c3)n2)cc1OC | inactive: -2.59% | –
7 | CCc1ccc(-n2c(SCC(=O)NC(C)CC)nc3n[nH]c(C)c3c2=N)cc1 (stereo unspecified) | inactive: -0.321% | –
8 | COc1ccc(N2CC(NC(=O)c3ccc4c(c3)OCO4)CC2=O)cc1OC (stereo unspecified) | inactive: -5.25% | –
9 | COc1ccc2c(c1)c1c(c(=O)n(-c3ccccc3)c(=O)n1CC(=O)Nc1ccc(F)cc1)n2C | inactive: -0.376% | –
10 | Cc1ccc(-c2nc(S(=O)(=O)c3ccc(Cl)cc3)c(N3CCCCC3)o2)cc1 | inactive: 19.3% | –
11 | COc1ccc(CNC(=O)Cn2nnc(-c3ccccc3F)n2)cc1 | inactive: 7.36% | –
12 | CCc1cc2c(cc3c(=O)n(CC(=O)N4CCCCC4)nc(CC)n32)s1 | inactive: 0.534% | –
13 | COc1ccc(Cl)cc1C(=O)Nc1ccc2oc(-c3ccc(C(C)(C)C)cc3)nc2c1 | inactive: -1.86% | –
14 | CCCSC1=NC2(CCN(C(=O)NC3CCCCC3)CC2)N=C1c1ccccc1 | inactive: 6.82% | –
15 | CC(C)c1nnc(NC(=O)c2nc(SCc3ccc(F)cc3)ncc2Cl)s1 | inactive: -3.15% | –
16 | CCCSc1ncc(Cl)c(C(=O)Nc2sc3c(c2C(=O)NCC)CCCC3)n1 | inactive: 1.58% | –
17 | Cc1cc2n(n1)CCCN2C(=O)Nc1ccc(Cl)cc1 | inactive: 1.78% | –
18 | COc1cccc(NC(=O)CN(Cc2ccccc2)S(=O)(=O)c2ccc3nc(C)sc3c2)c1 | inactive: -0.834% | –
19 | CSc1ncc(Cl)c(C(=O)Nc2nc3ccc(F)cc3s2)n1 | inactive: 3.65% | –
20 | CCN1CCN(C(=O)c2ccc3c(c2)N(Cc2ccccc2)C(=O)c2ccccc2S3=O)CC1 (stereo unspecified) | inactive: 1.8% | –
21 | CCOc1ccc(CNCc2c(C(=O)O)c(C)n(Cc3ccc(F)cc3Cl)c2C)cc1 | inactive: -4.17% | –

Row | SMILES | activity change, negative = inhibition | Potency
22 | Cc1nn(CCCC(=O)NCc2cccc(F)c2)c(=O)c2nn(-c3ccccc3)c(C)c12 | inactive: 5.09% | –
23 | COc1ccc(OC)c(-c2nc(C(N)=O)c3c(n2)n(-c2ccc4c(c2)OCO4)c(=O)n3C)c1 | inactive: -12.1% | –
24 | CCOC(=O)c1c(S(=O)(=O)NCC(=O)Nc2ccc(Cl)c(C(F)(F)F)c2)c(C)n(C)c1C | inactive: -4.34% | –
25 | Cc1ccc(NC(=O)CN(C)S(=O)(=O)c2ccc3c(c2)CCC(=O)N3)c(C)c1 | inactive: -10.2% | –
26 | COc1ccccc1-c1noc(-c2ccc(N(C)Cc3ccccc3)c([N+](=O)[O-])c2)n1 | inactive: 0.132% | –
27 | CCCN1CCN(c2ncc3c(n2)CCN(Cc2ccc(OC)c(OC)c2OC)C3)CC1 | inactive: 0% | –
28 | COc1ccccc1C(=O)c1c(N)c(-c2nc(-c3ccccc3)cs2)c2ccccn12 | inactive: -4.88% | –
29 | CCCCN(CC)C(=O)CCn1c(=O)c2cccn2c2cccnc21 | inactive: 2.37% | –
30 | CC(=O)c1cccc(N(C(=O)Cn2nnc3ccccc32)C(C(=O)NCc2ccccc2)c2ccc(F)cc2)c1 (stereo unspecified) | inactive: 8.43% | –
31 | CCCCNC(=O)CN1C(=O)CSc2ccc(S(=O)(=O)N3CCC(C)CC3)cc21 | inactive: -1.22% | –
32 | COc1ccc(CCNC(=O)Cn2c(=O)c3sccc3n(CC(=O)Nc3cccc(C(F)(F)F)c3)c2=O)cc1OC | inactive: 0.829% | –
33 | O=C(NCc1cccc(Cl)c1)c1cnc(N2CCCCC2)c2ccccc12 | inactive: -6.51% | –
34 | Cc1ccc(-n2ncc(C(=O)NCCc3ccsc3)c2C2CCN(C(=O)OC(C)(C)C)CC2)c(C)c1 | inactive: 3.64% | –
35 | Cc1cccc(N2CCN(c3ncnc4onc(C)c34)CC2)c1C | inactive: 5.84% | –
36 | CCc1ccc(C2N=C(N)Nc3nc4ccccc4n32)cc1 (stereo unspecified) | inactive: 0.632% | –
37 | COC(=O)c1cccc(Nc2c(-c3ccc(SC)cc3)nc3nc[nH]n23)c1 | inactive: 0.96% | –
38 | O=C(CCCCCn1c(=O)[nH]c2ccccc2c1=O)NCCc1ccccc1 | inactive: -0.121% | –
39 | COc1ccc(Cl)cc1NC(=O)CN(c1cccc(C)c1C)S(C)(=O)=O | inactive: 5.85% | –
40 | Cc1cccc(S(=O)(=O)c2cn(Cc3ccc(F)cc3)c3cc(N4CCCCC4)c(F)cc3c2=O)c1 | inactive: -1.05% | –
41 | CCc1ccc(CNC(=O)CN2C(=O)CSc3ccc(S(=O)(=O)N4CCOCC4)cc32)cc1 | inactive: 7.13% | –
42 | COc1cccc(C(=O)N(Cc2ccc(N(C)C)cc2)Cc2ccco2)c1 | inactive: -7.78% | –

Row | SMILES | activity change, negative = inhibition | Potency
43 | CCc1ccc(S(=O)(=O)NCc2cccn2Cc2cccc(C)c2)cc1 | inactive: 10.8% | –
44 | CC1=C(C(=O)Nc2cc(Cl)ccc2C)C(c2ccccc2F)n2ncnc2N1 (stereo unspecified) | inactive: -2.4% | –
45 | CCc1ccccc1NC(=O)c1cc(-c2ccc(OC)cc2)on1 | inactive: -3.93% | –
46 | CN1CCN(C(CNC(=O)C(=O)Nc2ccccc2C#N)c2ccc3c(c2)OCO3)CC1 (stereo unspecified) | inactive: -4.42% | –
47 | COc1ccc(CCNC(=O)CSc2cc(=O)n(C)c3ccccc23)cc1OC | inactive: 2.97% | –
48 | COc1cc(C(=O)Nc2sc3c(c2C(N)=O)CCC(C)C3)cc(OC)c1OC (stereo unspecified) | inactive: -1.3% | –
49 | CCn1c(=O)c(=O)n(CC)c2cc(N3CCCCC3)c(NC(=O)c3ccc(OC)c(OC)c3)cc21 | inactive: 0.297% | –
50 | Cc1ccc2sc(N(CCCN(C)C)C(=O)c3ccco3)nc2c1C | – | active: 11.7 µM
51 | COc1ccc(NC(=O)Cn2nnnc2-c2ccccc2F)c(C)c1 | inactive: 2.3% | –
52 | CCCNC(=O)C1CCC(Cn2c(=O)c3sccc3n(CC(=O)N(CC)CC)c2=O)CC1 (stereo unspecified) | inactive: -2.39% | –
53 | COC(=O)c1ccc(NC(=O)CC2C(=O)N(c3cccc(F)c3)C(=O)N2CC(C)C)cc1 (stereo unspecified) | inactive: -13.1% | –
54 | CCCN(CCC)CCNC(=O)CS(=O)Cc1nc(-c2ccc(OC)c(OC)c2)oc1C (stereo unspecified) | inactive: -13.4% | –
55 | Cc1ccc(-n2nc(C(=O)N3CCCCC3)c(=O)n(C)c2=O)cc1 | inactive: 0.327% | –
56 | COc1ccc(CN2C(=O)N(c3cccc(C)c3)C(=O)C2CC(=O)Nc2ccc(F)cc2)cc1OC (stereo unspecified) | inactive: 1.19% | –
57 | COc1cccc(C(=O)Nc2nc3c(s2)CCCC3)c1 | inactive: -7.52% | –
58 | CN(Cc1ccccc1)C(=O)C(=O)Nc1ccc2nc3n(c(=O)c2c1)CCCCC3 | inactive: 2.45% | –
59 | CNc1ccc(-c2nc(-c3ccccn3)no2)cc1[N+](=O)[O-] | inactive: 0.929% | –
60 | Cc1ccc(CNC(=O)c2cc3cc(C)ccc3n2C)cc1 | inactive: -0.249% | –
61 | COc1ccc(-n2c(=O)c3ccc(C(=O)NCc4ccc(C)cc4)cc3n(CC(=O)Nc3cccc(F)c3)c2=O)cc1 | inactive: -10.8% | –
